Laboratory results: the supplement of paper PMC12645437, “Orthogonal IMiD-Degron Pairs Induce Selective Protein Degradation in Cells” (ACS Chemical Biology, 2025)
The other results are listed elsewhere or left out.

B1: Q9UKT9 (peptide)
chain: FQCDICGAWFTQKGNLLRHIKL
B2: Q9UKT9 (peptide)
chain: FECEQCGAIFTQKGNLLRHIKL
B3: Q9UKT9 (peptide)
chain: FWCNQCGAPFTQKGNLLRHIKL
B4: Q9UKT9 (peptide)
chain: FACEQCGANFTQKGNLLRHIKL
B5: Q9UKT9 (peptide)
chain: FDCEQCGANFTQKGNLLRHIKL
B6: Q9UKT9 (peptide)
chain: FGCEVCGAAFTQKGNLLRHIKL
B7: Q9UKT9 (peptide)
chain: FSCEVCGADFTQKGNLLRHIKL
B8: Q9UKT9 (peptide)
chain: LNCEICGFRCTQKGNLLRHIKL
B9: Q9UKT9 (peptide)
chain: FGCSVCGHRFTQKGNLLRHIKL
B10: Q9UKT9 (peptide)
chain: FRCPQCGAWFTQKGNLLRHIKL
B11: Q9UKT9 (peptide)
chain: FRCEICGAYFTQKGNLLRHIKL
B12: Q9UKT9 (peptide)
chain: FSCPVCGAVFTQKGNLLRHIKL
B13: Q9UKT9 (peptide)
chain: LVCNQCGFMCTQKGNLLRHIKL
B14: Q9UKT9 (peptide)
chain: FICNVCGAKFTQKGNLLRHIKL
B15: Q9UKT9 (peptide)
chain: FYCDQCGAKFTQKGNLLRHIKL
B16: Q9UKT9 (peptide)
chain: FTCDICGAQFTQKGNLLRHIKL
B17: Q9UKT9 (peptide)
chain: FKCPQCGATFTQKGNLLRHIKL
B18: Q9UKT9 (peptide)
chain: FICNQCGHPFTQKGNLLRHIKL
B19: Q9UKT9 (peptide)
chain: FWCEQCGARFTQKGNLLRHIKL
B20: Q9UKT9 (peptide)
chain: FQCEICGALFTQKGNLLRHIKL
B21: Q9UKT9 (peptide)
chain: FVCNQCGHTFTQKGNLLRHIKL
B22: Q9UKT9 (peptide)
chain: FGCSVCGHHFTQKGNLLRHIKL
B23: Q9UKT9 (peptide)
chain: FACDVCGACFTQKGNLLRHIKL
B24: Q9UKT9 (peptide)
chain: FFCPICGRNFTQKGNLLRHIKL
B25: Q9UKT9 (peptide)
chain: LWCEICGFPCTQKGNLLRHIKL
B26: Q9UKT9 (peptide)
chain: FMCPQCGAQFTQKGNLLRHIKL
B27: Q9UKT9 (peptide)
chain: FQCPQCGADFTQKGNLLRHIKL
B28: Q9UKT9 (peptide)
chain: FECNICGALFTQKGNLLRHIKL
B29: Q9UKT9 (peptide)
chain: FICPQCGAIFTQKGNLLRHIKL
B30: Q9UKT9 (peptide)
chain: LHCEICGFECTQKGNLLRHIKL
B31: Q9UKT9 (peptide)
chain: FMCNQCGRFFTQKGNLLRHIKL
B32: Q9UKT9 (peptide)
chain: FHCNQCGANFTQKGNLLRHIKL

target: no compound (DMSO); assay: log2 fold change of degron read counts, EGFP-low vs EGFP+ sorted cells; higher = lower degron-EGFP level without compound (poor expression or instability); settings: compound: DMSO control; 18 h
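Note: jurkat cells carrying a lentiviral library of mutant zinc finger degrons fused to EGFP plus mCherry, mCherry+ cells FACS sorted, degron abundance counted by next-generation sequencing.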

Row | Sequence | log2 fold change of degron read counts
1 | B1 | -0.123
2 | B2 | -1.68
3 | B3 | 1.08
4 | B4 | -1.94
5 | B5 | -2.41
6 | B6 | -1.46
7 | B7 | -2.09
8 | B8 | 0.475
9 | B9 | 0.291
10 | B10 | 0.823
11 | B11 | -0.402
12 | B12 | -0.191
13 | B13 | -0.0588
14 | B14 | -1.81
15 | B15 | -1.03
16 | B16 | -1.12

Row | Sequence | log2 fold change of degron read counts
17 | B17 | -1.08
18 | B18 | -0.132
19 | B19 | -1.21
20 | B20 | -1.52
21 | B21 | -0.519
22 | B22 | 0.918
23 | B23 | -1.16
24 | B24 | -0.702
25 | B25 | 1.52
26 | B26 | -0.568
27 | B27 | -1.38
28 | B28 | -0.375
29 | B29 | 0.423
30 | B30 | -1.59
31 | B31 | 0.773
32 | B32 | -0.361
